Among all 46,000 compounds or so, about 60 (0.1%) were called active. Inconclusive results (about 3%) are left out. The call rests on the fitted dose curve; in most records, active means well fitted inhibition curve with a large enough effect; inconclusive means small, poorly fitted or top-dose-only effect; inactive means no such curve, though single readings can be large or run the other way. Some of the results follow.
Assay: Primary qHTS assay for Inhibitors of ovarian cancer metastasis using an organotypic tumor microenvironment (TME) model. Further: nearly all actives have a fitted effect of over 65% in size.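 On activity change, negative = inhibition: plate controls were DMSO wells for no effect and tomatine positive control wells for full effect.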
Details: SKOV3ip1-GFP adhesion/invasion on 3D omental model, fluorescence; series mostly up to 45.8 µM; activity change, negative = inhibition: at the top concentration
Summary of the method: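 Adhesion/invasion was scored as fixed GFP-labeled SKOV3ip1 cell counts (488/509 nm), normalized to DMSO and tomatine controls. Cancer cells in serum-free medium, with four compound doses (0.36-46 umol/L), sat 2 hr at RT then 16 hr at 37 C on a 48 hr fibroblast/mesothelial/ECM culture.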

| Compound | outcome | activity change, negative = inhibition |
| --- | --- | --- |
| COC(=O)c1c(NC(=O)c2nc(SC)ncc2Cl)sc2c1CCCC2 | inactive | – |
| CC(=O)c1cc(-c2ccccc2)n(CCC(=O)NCCc2ccccc2)c1C | – | inactive: -2.51% |
| CC(=O)NCc1nc2cccnc2n1Cc1ccccc1 | – | inactive: -4.1% |
| COc1ccc(Cl)cc1N(C)C(=O)Cc1noc2ccc(C)cc12 | – | inactive: -8.79% |
| COc1ccccc1N1CCN(C(=O)Cn2cnc3sc(C)c(S(=O)(=O)N4CCC(C)CC4)c3c2=O)CC1 | – | inactive: 7.39% |
| CCc1cccc(C)c1NC(=O)Cn1c(=O)n(-c2cccc(C)c2)c(=O)c2c1c1cc(C)ccc1n2C | – | inactive: -3.52% |
| O=C(CCc1ccccc1)NCc1ccc2c(c1)CCN2C(=O)c1ccc(Cl)cc1 | – | inactive: 8.87% |
| CCOc1ccc(CCNC(=O)c2cc3c(=O)n(C)c4ccccc4c3n2C)cc1 | inactive | – |
| O=c1[nH]c2ccc(NCc3ccccc3F)cc2[nH]1 | – | inactive: 1.3% |
| CC1Cc2ccccc2N1C(=O)CSc1nnc(-c2cccc(Cl)c2)o1 (stereo unspecified) | – | inactive: 2.87% |
| CCn1c(CNC(=O)C23CC4CC(CC(C4)C2)C3)nnc1SCC(=O)Nc1ccc(F)cc1 | – | inactive: 13.6% |
| CCOC(=O)c1cc(NC(=O)c2ccc(OC)cc2)c(=O)n2c1oc1ccc(Cl)cc12 | inactive | – |
| O=C(NCCS(=O)(=O)N1CCN(c2cccc(Cl)c2)CC1)c1cc(=O)c2ccccc2o1 | – | inactive: 8.16% |
| C=C(C)Cn1c(SCC(=O)Nc2cccc(Cl)c2)nc2sc3c(c2c1=O)CCCC3 | inactive | – |
| Cc1ccc(NC(=O)CC2Sc3ccccc3NC2=O)c(Br)c1 (stereo unspecified) | inactive | – |
| CCc1cccc(NC(=O)CC2Oc3ccc(C)cc3NC2=O)c1 (stereo unspecified) | inactive | – |
| CCOC(=O)c1cccc(NC(=O)c2cnc(N3CCCCC3)c3ccccc23)c1 | inactive | – |
| CCOc1ccc(NC(=O)Cn2cc(C(=O)c3ccc(CC)cc3)c(=O)c3ccc(C)nc32)cc1 | – | inactive: 5.57% |
| N#Cc1c(N(CC(=O)O)CC(=O)O)sc(C(=O)O)c1CC(=O)O | – | inactive: -6.35% |
| COc1ccc(-n2c(=O)c3c(c4cc(OC)ccc4n3C)n(C)c2=O)cc1 | – | inactive: -5.97% |
| O=C(NCCC1=CCCCC1)c1ccc2c(c1)N(Cc1ccc(Cl)cc1)C(=O)c1ccccc1S2=O (stereo unspecified) | – | inactive: 9.54% |
| CC1=C(c2ccc(C)c(C)c2)S(=O)(=O)N=C1N1CCC(C(=O)NCc2ccc(Cl)cc2)CC1 | – | inactive: 3.44% |
| COc1ccc(NC(=O)CSc2nccn2Cc2ccco2)cc1OC | – | inactive: 1.79% |
| O=C(COc1ccccc1F)Nc1ccc(Cl)c(-c2nc3ccccc3[nH]2)c1 | – | inactive: -9.98% |

| Compound | outcome | activity change, negative = inhibition |
| --- | --- | --- |
| Cc1cc(C)c(/C=C/c2onc(C)c2S(=O)(=O)N2CCC(C(=O)Nc3ccc(Cl)c(C(F)(F)F)c3)CC2)c(C)c1 | – | inactive: -5.21% |
| CCN(CC)S(=O)(=O)c1ccc2c(c1)N(CC(=O)Nc1c(C)cc(C)cc1C)C(=O)C1CCCN21 (stereo unspecified) | inactive | – |
| CCOC(=O)C1=C(C)NC(=S)NC1c1cccc(O)c1 (stereo unspecified) | – | inactive: 4.37% |
| Cc1ccc(CNC(=O)CN2CCCN(Cc3ccc(F)cc3)S2(=O)=O)cc1 | inactive | – |
| Cc1ccc(-n2c(=O)c3cccnc3n2CC(=O)NCc2ccc(F)cc2)cc1C | – | inactive: 26.1% |
| Clc1ccc(-c2nc3ccccn3c2Nc2ccc3c(c2)OCCO3)s1 | – | inactive: -25.3% |
| COc1cc(NC(=O)c2cc(-c3cccc(Cl)c3)on2)c(OC)cc1Cl | – | inactive: -5.37% |
| CCOCCc1nnc(NC(=O)C(=O)c2cc(C)n(-c3cccc(Cl)c3)c2C)s1 | – | inactive: -6.89% |
| Cc1ccc2nc(NC(=O)CSc3nccn3Cc3ccccc3)sc2c1 | – | inactive: -13.7% |
| CCc1ccc(N2CCn3c2nc2c3c(=O)n(CCc3ccccc3)c(=O)n2C)cc1 | inactive | – |
| COc1ccccc1NC(=O)c1nc(SCc2ccc(F)cc2)ncc1Cl | – | inactive: -6.18% |
| CCOC(=O)c1cnc2ccccc2c1Nc1ccc(N2CCOCC2)cc1 | – | inactive: -11.2% |
| Cc1cccc(Cn2c(=O)n(-c3ccc(Cl)c(Cl)c3)c(=O)c3c(C)c(C)sc32)c1 | – | inactive: 1.34% |
| Cc1ccccc1CSc1cn(CC(=O)N2CCCC2)c2ccccc12 | – | inactive: -3.25% |
| CCN(Cc1ccccc1)C(=O)Cn1c(=O)oc2cc(S(=O)(=O)N3CCCCCC3)ccc21 | – | inactive: 9.52% |
| Cc1ccc(C)c(N2CCN(C(c3ccc(F)cc3)c3nnc(-c4ccccc4)o3)CC2)c1 (stereo unspecified) | – | inactive: -1.59% |
| COc1ccc(OC)c(NC(=O)c2sc3nc4c(cc3c2N)CCCCCC4)c1 | – | inactive: 6.62% |
| COc1ccc(NC(=O)c2sc3nc(C)c(C(=O)Nc4ccc(C)cc4C)c(-c4cccs4)c3c2N)cc1 | – | inactive: -13.2% |
| CCOc1ccc(NC(=O)C(=O)NCCc2csc(-c3ccc(C)cc3)n2)cc1 | – | inactive: -9.94% |
| Cc1noc2ncnc(NCc3ccccc3Cl)c12 | – | inactive: -5.12% |
| CCC(=O)N1CCc2cc(S(=O)(=O)NCCC(=O)Nc3ccc(OC)c(OC)c3)ccc21 | – | inactive: -9.03% |
| CCOc1ccc(-c2cc(C(=O)N3CCN(c4ccc(C)cc4)C(C)C3)c3ccccc3n2)cc1 (stereo unspecified) | – | inactive: 4.05% |
| Cc1cccc(N2CCN(c3ncnc4c3c(-c3ccccc3)cn4-c3ccccc3)CC2C)c1 (stereo unspecified) | inactive | – |
| Cc1cnc2c(c1SCC(=O)NCc1ccc(F)cc1)c(=O)n(C)c(=O)n2C | – | inactive: 5.5% |

| Compound | outcome | activity change, negative = inhibition |
| --- | --- | --- |
| COc1ccc(NC(=O)CSc2nnc3c(C)cc4ccccc4n23)cc1 | – | inactive: -0.617% |
| COc1cc(-c2nnn(CC(=O)NCc3ccccc3)n2)cc(OC)c1OC | – | inactive: 4.94% |
| Cn1cc(S(=O)(=O)c2ccc(Cl)cc2)c(=O)c2cc(F)c(N3CCOCC3)cc21 | – | inactive: -5.31% |
| COc1ccc(-c2cc3nc(C)c(CCC(=O)N4CCN(c5cc(C)ccc5C)CC4)c(C)n3n2)c(OC)c1 | – | inactive: 9.62% |
| COc1cc(C(=O)NCCS(=O)(=O)N2CCN(c3ccccc3)CC2)cc(OC)c1OC | – | inactive: -5.47% |
| CC(=O)Nc1ccc(NS(=O)(=O)c2cc3c4c(c2)CC(=O)N4CCC3)cc1 | – | inactive: 4.84% |
| CCCCn1nc(NC(=O)c2cccc(Cl)c2)c2cc3ccc(C)cc3nc21 | – | inactive: 0.0792% |
| CC(C)(C)c1ccc(OCC(=O)NC(Cc2c[nH]c3ccccc23)C(=O)O)cc1 (stereo unspecified) | – | inactive: 7.78% |
| COc1cccc(CNC(=O)CCCn2c(=O)c3cccn3c3cccnc32)c1OC | – | inactive: 8.05% |
| CN(C(=O)CSc1nc2ccc(NC(=O)COc3ccccc3Cl)cc2s1)c1ccccc1 | – | inactive: 2.23% |
| Cc1ccc(Nc2c(-c3ccccc3O)nc3cc(C)ccn23)cc1 | – | inactive: -2% |
| COc1ccc(N2CCN(S(=O)(=O)CCNC(=O)c3ccc(OC(C)C)cc3)CC2)cc1 | – | inactive: -13.8% |
| COc1ccccc1/C=C/c1nc(C#N)c(N2CCN(c3ccccc3)CC2)o1 | – | inactive: 4.92% |
| CCOc1ccc(NC(=O)CN2CCN(CC(=O)Nc3ccc(OC)cc3)CC2)cc1 | – | inactive: 8.98% |
| Cc1c(-c2ccc(Cl)cc2)c(=O)oc2c(CN3CCOCC3)c(O)ccc12 | – | inactive: 17.2% |
| O=C(NCCc1ccccc1)c1cc2sccc2n1Cc1ccc(F)cc1 | – | inactive: -3.08% |
| COC(=O)c1c(SCC(=O)Nc2cc(F)ccc2F)[nH]c2ccc(C)cc2c1=O | – | inactive: 98.4% |
| COc1ccc(-c2cc(C(F)(F)F)nc(NCCc3ccccc3)n2)cc1 | – | inactive: -6.15% |
| CNC(=O)c1c(NC(=O)c2ccc(S(=O)(=O)N3CCCC(C)C3)cc2)sc2c1CCC2 (stereo unspecified) | inactive | – |
| Cc1ccc(NC(=O)CSc2nc3ccc(NC(=O)c4ccco4)cc3s2)c(C)c1 | inactive | – |
| CSc1cccc(NC(=O)C(c2ccccc2)N2Cc3ccccc3C2=O)c1 (stereo unspecified) | inactive | – |
| COC(=O)c1cccc(CN2C(=O)SC(Nc3ccc(Br)cc3)C2=O)c1 (stereo unspecified) | – | inactive: 2.31% |
| Cc1ccc(NC(=O)C2CCCN(S(=O)(=O)c3ccc(F)cc3)C2)cc1 (stereo unspecified) | – | inactive: 5.76% |
| Cc1cc(C)cc(NC(=O)Nc2cccs2)c1 | – | inactive: -12.8% |

| Compound | outcome | activity change, negative = inhibition |
| --- | --- | --- |
| CCOC(=O)CN1C(C(=O)c2ccccc2)=C(OC(=O)c2ccccc2)c2ccccc2S1(=O)=O | – | inactive: -4.39% |
| COC(=O)C1CCN(C(c2ccccc2Cl)c2sc3nc(-c4ccco4)nn3c2O)CC1 (stereo unspecified) | – | inactive: 2.78% |
| CCCCOc1ccc(C(=O)Nc2onc3c2CCCC3)cc1 | – | inactive: 0.792% |
| CCOC(=O)c1cccc(NC(=O)c2ccc3snnc3c2)c1 | – | inactive: -13.5% |
| COc1ccccc1N1CCN(C(=O)C2CCCN(S(=O)(=O)c3ccc4c(c3)oc(=O)n4C)C2)CC1 (stereo unspecified) | – | inactive: -0.114% |
| Cc1ccc(C)c(NC(=O)Cn2cnc3nc4c(cc3c2=O)CCCC4)c1 | – | inactive: 5.42% |
| Cc1nc2ccn(Cc3cccnc3)c(=O)c2cc1C(=O)N1CCN(c2ccccc2)CC1 | – | inactive: -3.63% |
| COc1ccccc1C(=O)Nc1nc(-c2ccc(Br)cc2)ns1 | – | inactive: 13.1% |
| Cc1ccc(Nc2nc(N)nc(N)c2S(=O)(=O)c2ccccc2)cc1 | – | inactive: -0.728% |
| COC(=O)c1sccc1S(=O)(=O)N(CC(=O)NCc1ccccc1)c1ccc(C)cc1 | – | inactive: -1.36% |
| CCc1ccc(-n2c(N3CCN(c4cccc(C)c4C)CC3)nc3ccccc3c2=O)cc1 | – | inactive: 2.34% |
| COCCNC(=O)CSc1nnc(NC(=O)Nc2ccc(C)cc2)s1 | – | inactive: -2.46% |
| Cc1cc(-c2ccc(C)c(S(=O)(=O)N3c4ccccc4CC3C)c2)on1 (stereo unspecified) | inactive | – |
| O=C(Cn1c(=O)n(-c2ccccc2)c(=O)c2c3c(sc21)CCCC3)Nc1ccccc1 | – | inactive: -2.15% |
| CCOC(=O)c1c(NC(=O)/C=C/c2ccc(OCC)cc2)sc2c1CCCC2 | inactive | – |
| O=C(NCc1ccc2c(c1)CCN2C(=O)c1ccc(Cl)cc1)c1ccco1 | – | inactive: -4.3% |
| CC(=O)N1CCc2c(sc3c2c(=O)n(-c2cccc(Cl)c2)c(=O)n3Cc2ccc(F)cc2Cl)C1 | – | inactive: -5.75% |
| Cc1nn(C)c2c1c(C(F)(F)F)cc(=O)n2CC(=O)N1CCN(c2ccccc2F)CC1 | – | inactive: 21% |
| CCN(CC)c1ccc(NS(=O)(=O)c2ccc(-c3coc(C)n3)cc2)c(C)c1 | – | inactive: 13.5% |
| Cc1ccc(Oc2nc3ccccn3c(=O)c2/C=C(\C#N)c2nc3ccccc3s2)c(C)c1 | – | inactive: -0.347% |
| CCN(CC)c1cc(C)c2cc(NC(=O)/C=C/c3ccccc3OC(C)C)ccc2n1 | inactive | – |
| Cc1cc(C)c2c(=O)c3c(oc2c1)C(=O)N(Cc1ccco1)C3c1ccc(F)cc1 (stereo unspecified) | – | inactive: 2.39% |
| CCOc1ccc(-c2cc(C(=O)NCCc3ccccc3)c3c(-c4ccc(C)cc4)[nH]nc3n2)cc1 | – | inactive: -3.28% |
| Cc1ccc(CC(=O)Nc2c(C(=O)N3CCN(c4ccccc4)CC3)oc3ccccc23)cc1 | – | inactive: -8.9% |
